# Experimental data from ChEMBL document CHEMBL4888484, “Replenishing the malaria drug discovery pipeline: Screening and hit evaluation of the MMV Hit Generation Library 1 (HGL1) against asexual blood stage Plasmodium falciparum ,using a nano luciferase reporter read-out” (2022).
# Hit rate of the full screen: of about 150,000 compounds, about 540 (0.36%) showed an effect of 50% or more. The list shows a part of the results.
# Tested on: Plasmodium falciparum
# Assay: Primary screen in NF54 nanoGlo assay, in single point, at 2uM, 72h; a lower Z score goes with more inhibition
# Assay type: functional, Erythrocyte
# Details: timepoint 72 hour
SMILES,% Inhibition [%],Z score
CC(=O)Nc1cc(F)c(S(=O)(=O)OCC(F)(F)F)cc1Cl,2,-0.35
FC(F)(F)c1cccc(N2CCN(c3ncnc4[nH]ccc34)CC2)c1,3,-0.67
CCc1c(C(=O)NC(C)C2CCCO2)csc1C (configuration not stated),0,0.07
CC(C)(C)c1ccc([C@@H]2CCCN2C(=O)c2cccnc2O)cc1,3,-0.29
O[C@H]1CN(CCCC(F)(F)F)C[C@@H]1N1CCN(c2ccccn2)CC1,-6,1.13
Cc1sc(C(=O)N2CCNC(=O)C2(C)C)cc1-c1ccc(F)cc1,13,-1.56
C[C@@H]1C[C@H]1C(=O)Nc1cccc(-c2cn[nH]c2)c1,4,-0.74
C[C@@H](CN(C)C(=O)Cc1cccc(Br)c1)C(=O)O,-2,0.2
CCCC1CC(C(=O)NC(C#N)c2ccc(F)cc2F)CCO1 (configuration not stated),0,-0.04
CCOc1ccc(-c2nc(CN3CCO[C@H]4COCC[C@H]43)co2)cc1,-10,1.75
CC(C)CC(=O)N[C@H]1CCCC(F)(F)C1,4,-0.51
CC(C)c1noc(Cc2ccc(NC(=O)NCc3ccco3)cc2)n1,-4,0.54
Cc1scc(CN2CCc3ccccc3C2)c1C,-19,1.8
Cc1cc(N2CC3CC2CO3)nc(C2CC2)n1 (configuration not stated),-13,1.64
CC1CN(C)CC(C)N1C(=O)c1ccc(-n2cc(Br)cn2)nn1 (configuration not stated),-2,0.36
COc1ccnc(CN(C)Cc2cn(C)nc2C)c1OC,-7,1.37
CCCn1nccc1-c1ccc(CNC(C)=O)cn1,7,-0.91
Cc1c(Br)cccc1CCNC(=O)C1CS(=O)(=O)C1,-9,1.21
CCc1c(C)nc(-c2cccc(C)c2)nc1N1CCN(C(=O)C[C@@H](C)CC(C)(C)C)CC1,-20,2.85

SMILES,% Inhibition [%],Z score
CNc1cc([C@H]2C[C@@H](NC(=O)NCCc3ccccc3F)C2)nc(N)n1,-19,3.21
Cc1ncc(CC(=O)N(C)Cc2csc(-c3ccccc3)n2)c(=O)[nH]1,4,-0.71
Cc1ccc(CN2C[C@H](C(=O)NCCc3ccncc3)C3(CCOCC3)C2)s1,-1,0.1
CN(C)c1ccc(-c2nc([C@H]3CCOC3)no2)cn1,-2,0.38
Cc1cc(C)n(-c2ccc(C(=O)N3CCN(c4ccccc4F)CC3)cc2)n1,-6,0.75
CN(C)CC1(O)CCC2(CCN(C(=O)C3CCCC3)CC2)CC1,-8,1.59
Cc1nn(C)cc1S(=O)(=O)N1CCN[C@H](C)C1,-1,0.07
CC(=O)Nc1c2n(c3ccccc13)C[C@@](C)(C(=O)NC1CCCC1)N(Cc1ccccc1Cl)C2=O,-3,0.33
COc1ccc(C(=O)N[C@H](C(=O)NCC2CCCCC2)C(C)C)cc1,-16,2.28
CCc1cnc(NCCc2nc(C)cc(C)n2)nc1,-11,1.11
Cc1cc2c(cc1C)NC(C(F)(F)F)=CC(c1cccs1)=N2,-16,3
CC(C)c1nnsc1CNc1cc(CN)ncn1,-1,0.13
NS(=O)(=O)c1cccc2c1CCCN2CC(=O)Nc1cccc(N2CCCC2=O)c1,9,-1.23
CCN=C(NCc1cccc(N(C)C)n1)NCC(C)(C)OC,8,-1.48
CN1CCN(S(=O)(=O)c2cnn(C3CCCC3)c2)C[C@@H]1CO,-5,0.72
CC(CC(O)c1ccccc1)Nc1nc(C(C)C)no1 (configuration not stated),-7,0.85
Cc1cc(C(=O)N2CC3CCCCC3C2)nn1C (configuration not stated),-10,1.23
CCc1ccc(NC(=O)Cn2nc(NC)c(-c3nc(-c4ccccc4)no3)c2N)cc1,-4,0.54
CCN(CC)c1ncc(CN2CCCC3(C2)OCCO3)s1,-2,0.26

SMILES,% Inhibition [%],Z score
CCNC(=O)NCCc1ncc(C)n1C1CCCCCCC1,-10,1.5
Cc1nc(C(=O)Nc2cc(N3CCNC3=O)ccc2F)c(C)s1,33,-3.79
c1cncc(CN2CCn3nc4c(c3C2)CCC4)c1,-11,1.36
Cc1cccc(CN2CCC[C@@]3(CCN(C(=O)c4cc(C(C)C)n[nH]4)C3)C2)c1,1,-0.13
O=C1CCCN1CCN1CCO[C@@H](Cc2ccccc2Cl)C1,-2,0.34
Cc1ccc(-c2noc(-c3ccc(N4CCN(c5ncccn5)CC4)nc3)n2)cc1,0,0.08
CO[C@@H](C)c1noc(-c2scnc2C)n1,34,-3.81
CN(C)C(=O)c1cccc(S(=O)(=O)N2CC[C@H](OCc3ccccn3)C2)c1,-9,1.15
COc1cccc(CC(=O)N2CC(N3C(=O)CNC3=O)C2)c1,-11,2.09
CN1CCN(C(=O)OCC(F)(F)F)CC1,-3,0.44
Fc1cnc(N2CCO[C@H](c3ccccc3)C2)nc1,-11,1.37
O=C1CCN(C(=O)C[C@@H](c2ccccc2)c2ccc(Cl)cc2)CCN1,-6,1.23
O=C(c1cncc(O)c1)N1C[C@H]2CCC[C@@H](C2)C1,-5,0.85
C[C@H](NC(=O)c1ccc(Cl)cc1Br)c1nccs1,-3,0.6
Cc1ccc(C)n1-c1ccc(Cl)c(C(=O)NCc2nnc3ccccn23)c1,-35,4.1
COc1ccc(-n2nc(-c3nnc(-c4ccccc4)[nH]3)c(N3CCN(c4ccccn4)CC3)n2)cc1,-52,6.08
Cc1ccc(C)c(-n2nc(C)c(CNCC3(O)CCOCC3)c2Cl)c1,-3,0.4
O=S(=O)(c1ccoc1)N1CCC[C@H](c2ccncc2)CC1,-30,3.54
